According to PMC3110179:
These are yes or no findings as the source states them, for the method shown. For part of these data: Binding seen in cells or lysates may run through a third protein. Some results given as binding are weak or reduced against the parent protein; the word gives no strength. Blank lines part the entries; values can stand above or below the substance they belong to.

By UniProt entry, the sequences of proteins in these tests, tags left out. Where a name states a change or a piece, a line headed by the entry shows the natural chain unless it says otherwise.
UniProt Q9LJX0: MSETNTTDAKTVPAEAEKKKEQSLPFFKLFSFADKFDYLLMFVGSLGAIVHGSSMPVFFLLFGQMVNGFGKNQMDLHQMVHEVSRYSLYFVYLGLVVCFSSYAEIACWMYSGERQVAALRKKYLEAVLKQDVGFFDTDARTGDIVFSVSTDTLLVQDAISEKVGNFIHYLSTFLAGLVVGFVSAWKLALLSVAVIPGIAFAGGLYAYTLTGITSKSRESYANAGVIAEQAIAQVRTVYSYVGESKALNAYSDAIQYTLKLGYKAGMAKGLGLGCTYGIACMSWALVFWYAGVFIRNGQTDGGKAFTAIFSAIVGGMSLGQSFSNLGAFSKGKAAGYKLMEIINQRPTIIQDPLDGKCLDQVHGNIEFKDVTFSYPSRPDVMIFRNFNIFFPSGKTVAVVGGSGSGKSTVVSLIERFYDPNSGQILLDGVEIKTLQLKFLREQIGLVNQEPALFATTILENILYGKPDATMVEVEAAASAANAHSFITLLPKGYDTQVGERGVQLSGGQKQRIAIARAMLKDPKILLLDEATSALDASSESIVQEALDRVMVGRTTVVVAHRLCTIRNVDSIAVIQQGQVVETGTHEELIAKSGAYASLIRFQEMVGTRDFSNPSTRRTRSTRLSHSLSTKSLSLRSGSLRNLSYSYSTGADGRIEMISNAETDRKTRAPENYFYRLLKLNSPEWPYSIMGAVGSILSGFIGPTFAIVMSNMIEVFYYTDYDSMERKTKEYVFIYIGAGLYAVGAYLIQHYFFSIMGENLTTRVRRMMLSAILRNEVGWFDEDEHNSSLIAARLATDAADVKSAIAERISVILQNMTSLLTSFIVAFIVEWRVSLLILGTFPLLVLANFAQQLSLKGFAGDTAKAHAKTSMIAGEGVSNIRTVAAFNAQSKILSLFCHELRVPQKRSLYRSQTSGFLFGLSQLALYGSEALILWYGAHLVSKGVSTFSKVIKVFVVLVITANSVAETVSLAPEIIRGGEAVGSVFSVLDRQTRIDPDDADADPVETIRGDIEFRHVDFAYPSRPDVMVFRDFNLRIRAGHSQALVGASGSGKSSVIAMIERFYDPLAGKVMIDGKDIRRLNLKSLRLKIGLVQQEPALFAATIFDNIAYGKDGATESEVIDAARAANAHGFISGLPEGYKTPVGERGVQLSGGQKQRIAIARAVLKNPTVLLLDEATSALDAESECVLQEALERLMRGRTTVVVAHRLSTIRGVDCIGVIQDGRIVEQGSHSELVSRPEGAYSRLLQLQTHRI

Tests used:
[1] = biological target: phot1-green fluorescent protein (PHOT1:phot1-GFP) (Arabidopsis thaliana) (UniProt O48963); assay: co-IP; phot1-GFP immunoprecipitated (GFP) from solubilized microsomes of 3-d-old etiolated Arabidopsis seedlings kept dark or exposed to blue light (20 µmol m^-2 s^-1, 5 min; interaction attenuated); immunoblot with anti-GFP and anti-B19
[2] = biological target: phot1-YN (Arabidopsis thaliana) (UniProt O48963); assay: split reporter; BiFC: phot1-YN and B19-YC co-expressed in tobacco leaf epidermis; YFP fluorescence at the plasma membrane
[3] = biological target: T1, C-terminus of phot1 including its Ser/Thr kinase domain (amino acids 612-996), two-hybrid bait (Arabidopsis thaliana) (UniProt O48963); assay: two-hybrid; yeast; regions of B19 (and B1) in pGADT7 prey, regions of PHOT1 in pGBKT7 bait; growth on full selection medium
T1 sequence: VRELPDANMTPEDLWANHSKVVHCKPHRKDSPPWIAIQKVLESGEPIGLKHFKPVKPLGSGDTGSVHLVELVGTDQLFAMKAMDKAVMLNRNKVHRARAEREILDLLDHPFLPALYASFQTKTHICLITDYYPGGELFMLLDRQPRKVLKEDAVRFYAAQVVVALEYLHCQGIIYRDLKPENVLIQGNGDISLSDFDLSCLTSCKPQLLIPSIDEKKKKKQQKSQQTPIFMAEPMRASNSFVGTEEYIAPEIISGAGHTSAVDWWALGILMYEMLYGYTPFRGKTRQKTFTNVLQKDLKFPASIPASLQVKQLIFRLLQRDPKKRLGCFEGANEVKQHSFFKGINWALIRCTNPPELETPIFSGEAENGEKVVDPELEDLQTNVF

binding [1]: binds
Substance: ATP-BINDING CASSETTE B19 (ABCB19), endogenous (from UniProt Q9LJX0 1-1252)

binding [2]: binds
Substance: B19-YC (from UniProt Q9LJX0 1-1252)

binding [3]: binds
Substance: C-terminus of B19 (B19C, amino acids 1121-1252), two-hybrid prey (from UniProt Q9LJX0 1121-1252) (domain or fragment)
